From the supplement of paper PMC11417369
The list shows a part of the results.

tested on: PfAP2-HC AP2 domain (GST-tagged); experiment: gcPBM binding intensity (ln(normalized median fluorescence intensity)); higher = stronger DNA binding
Summary of the method: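 In this array assay, P. falciparum DNA-binding domains with a GST tag, expressed in E. coli, were applied for 1 h to primer-extended double-stranded 36-bp intergenic genomic probes and negative controls on an Agilent 4 × 180k array. Bound protein was visualised with Alexa488 anti-GST antibody at 488 nm. Binding intensity is the highest Masliner-normalised natural-log median intensity across replicate spots of either probe orientation.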

| Sequence | gcPBM binding intensity (ln) |
| --- | --- |
| AAAAAATGCGACATGTGTACACATATATATATATAT [XGTACX_site1679] | 10.2 |
| GAAAATATTACATACACGCACACATTAATATATTTA [CACACA_site2604] | 10.3 |
| ATATATATATCAAAATGTACAAAAATAGAATTTAAA [XGTACX_site8292] | 9.7 |
| CAGTAGTTTTTATGGGTGCAAAACATATATATAACA | 9.67 |
| CCTTTCCTAGCACATGCACACAAAAAAAAAAAAAAA [CACACA_site8396] | 9.51 |
| AAAATTAAAATATCACGTACGAAGAAAAAATTAAGA [XGTACX_site6437] | 9.87 |
| TACACCCACCAACACACACACACACTAATAAAAAAA [CACACA_site8060] | 11.3 |
| ATCTTTTTACTTAATACACACACACCCAAAAAAAAA [CACACA_site8221] | 10.7 |
| AAACGGCTATTAAAATGTACATGTAAATATATTAAA [XGTACX_site918] | 9.73 |
| AATACATATGGGTGTACACATTATATATATATATAT [CACACA_site4601] | 9.84 |
| TATATATATATAGATGCATGCAATTACATATAACAA [TGCATGCA_site118] | 9.94 |
| TTGTGTACATATTAAGTGCATATATATATATATATA | 10.4 |
| GCATATGATGAGCATATAATCATAAGAAAAAAAAAA [CACACA_negctrl_site701] | 9.47 |
| AATAAATAGTAGTAGGTGCTACTATATTATATATAT [GTGCAC_site9452] | 9.75 |
| TATGTAATAATAAACGGTACACTATATTGTATGAAA [XGTACX_site4648] | 9.79 |
| ATTTTCTATATCTTTCAACACACAAATTTTTTTTTC [CACACA_site7918] | 9.74 |
| TACATCAAACAAGTATGTACATATATATATATATAT [XGTACX_site7415] | 9.67 |
| AACACTTCATACACGTGTACAAATATAATATAGACA [XGTACX_site5671] | 10.2 |
| GGAAATAATATTATTACACACCAAAATGTATAAAAA [CACACA_site4036] | 9.72 |
| AAAATATTCACGTGTACATATATATATATATATTAT [TGCATGCA_negctrl_site192] | 9.95 |
| ATATTAAAATTAAACGCATGCATATATTATAAAAGA [TGCATGCA_site231] | 9.74 |
| CTAATTAATGGGTACATACACACATATATACATACA [CACACA_site743] | 9.87 |
| TTCTGTATAACACAAATTTTTTTTTATTCACTCTGT [TGCATGCA_negctrl_site410] | 9.74 |

| Sequence | gcPBM binding intensity (ln) |
| --- | --- |
| TTTTTATCAAATAAATGTACACATATTAAATGAAAT [XGTACX_site555] | 9.4 |
| AATAATATAACAGAACAAAACTAAATATACACATAT [TGCATGCA_negctrl_site31] | 9.94 |
| TATTTCATAATAAATTGTACGCGTAGAAAACCATGA [XGTACX_site7506] | 9.99 |
| AAAAAAAAAAAAAACACACACACACGCATACAAAAT [CACACA_site6794] | 10.6 |
| TTATATCTTATAAAATGTACATAAAATATATAATAT [XGTACX_site7647] | 9.43 |
| ATATTTTTCTTAAGTACACACTAAATAGAAACTAAA [CACACA_site4191] | 9.56 |
| ATTAATTATATAATATGTACATATTACAAATATATA [XGTACX_site1478] | 9.58 |
| TTAATGTTATATGTGTGTACATATAAGTTTAGTAAA [XGTACX_site4651] | 9.89 |
| GAGAAAAATAAATACACACACATAAATAAATACATA [CACACA_site5102] | 10.9 |
| TATGTATATTTTAATTGTACGTGTATGGTTGTAAAT [XGTACX_site8738] | 9.6 |
| TGATTAATAATTTTCTTCATACATTAAACATCTTTT [TGCATGCA_negctrl_site342] | 9.43 |
| TTTTTTTTTTCATTAACACACATAAATATATATATA [CACACA_site5759] | 9.63 |
| CACTAATAGTGGATTACACACATATATCTGTATTTA [CACACA_site5403] | 9.76 |
| TTTGTAAGAAATAAATGTACAAAAATTAATTTTTAT [XGTACX_site8983] | 9.45 |
| GACATAAAATTCAAAGTGCATAAATAAAATAAACCC | 9.76 |
| TTTTTTTTTTTTTTCTGTACAAATTAAATCTACATA [XGTACX_site8285] | 9.25 |
| ATATTTAAAAAATGATGTACAAAAATGTAGTCACAC [XGTACX_site6208] | 9.73 |
| GAAATTAAATGACATACACACTATATTATAGATTTT [CACACA_site7468] | 9.82 |
| TATTTTAATGAATTCACACATATAATTTATTTTATA [CACACA_site4538] | 9.49 |
| ATAGTATCTGGTAGCTGTACGAGTCGTAGAGTGTAA [XGTACX_site4936] | 9.69 |
| ATATAAAACTAATTTCTTTTTCTCCTTTTATTTTGT [CACACA_negctrl_site1251] | 9.65 |
| AATATATATTAATAAAGTACAGGAAATATTTTTACC [XGTACX_site7052] | 9.73 |
